Experimental data reported in patent US20180118829A1.
These are yes or no findings as the source states them, for the method shown. Some results given as binding are weak or reduced against the parent protein; the word gives no strength.

Chains of the proteins cited; added tags and fusions are not shown. Lines headed by an entry give the natural chain unless they say otherwise; changes in a name come on top.
UniProt Q9NZQ7: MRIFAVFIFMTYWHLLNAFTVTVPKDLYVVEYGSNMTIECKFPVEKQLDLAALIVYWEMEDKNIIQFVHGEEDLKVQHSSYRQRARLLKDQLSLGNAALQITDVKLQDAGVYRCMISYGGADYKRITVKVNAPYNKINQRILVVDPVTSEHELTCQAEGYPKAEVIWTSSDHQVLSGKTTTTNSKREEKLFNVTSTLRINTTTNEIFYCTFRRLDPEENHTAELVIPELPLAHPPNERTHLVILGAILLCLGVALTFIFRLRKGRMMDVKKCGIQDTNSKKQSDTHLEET
UniProt Q9BQ51: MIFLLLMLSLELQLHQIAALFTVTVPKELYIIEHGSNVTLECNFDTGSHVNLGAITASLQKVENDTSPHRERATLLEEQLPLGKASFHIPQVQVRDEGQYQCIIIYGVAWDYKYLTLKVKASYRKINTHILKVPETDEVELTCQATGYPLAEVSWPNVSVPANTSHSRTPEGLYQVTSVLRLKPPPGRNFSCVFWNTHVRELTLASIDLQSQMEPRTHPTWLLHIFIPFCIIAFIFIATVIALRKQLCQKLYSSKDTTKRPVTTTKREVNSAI

Columns and labels:
[1] = molecular target: Human PD-1 A132L ECD-Fc-His6 (human); assay: BLI (ForteBio OctetRED96), PD-1 ECD-Fc-His6 panel; Y = affinity within ~5-fold of WT human PD-1
[2] = molecular target: Human PD-1 N33-Q167 ECD-Fc-His6 (human); assay: as above
[3] = molecular target: Human PD-1 extracellular domain (ECD)-Fc-His6 (human); assay: as above
[4] = molecular target: Cynomolgus monkey PD-1 ECD-Fc-His6 (cynomolgus monkey); assay: as above
[5] = molecular target: Mouse PD-1 ECD-Fc-His6 (mouse); assay: as above
[6] = molecular target: Human PD-1 L128A ECD-Fc-His6 (human); assay: BLI (ForteBio OctetRED96), PD-1 ECD-Fc-His6 panel; Reduced = affinity reduced >10-fold and <100-fold vs WT human PD-1
[7] = molecular target: Human PD-1 I134A ECD-Fc-His6 (human); assay: condition: affinity reduced by >100-fold vs wild-type human PD-1; BLI (ForteBio OctetRED96), PD-1 ECD-Fc-His6 panel
[8] = molecular target: Human PD-1 K78A ECD-Fc-His6 (human); assay: as above
[9] = molecular target: Human PD-1 I126A ECD-Fc-His6 (human); assay: as above
[10] = molecular target: Human PD-1 I134A ECD-Fc-His6 (human); assay: BLI (ForteBio OctetRED96), PD-1 ECD-Fc-His6 panel; Y = affinity within ~5-fold of WT human PD-1
[11] = molecular target: Human PD-1 L128A ECD-Fc-His6 (human); assay: as above
[12] = molecular target: Human PD-1 I126A ECD-Fc-His6 (human); assay: as above

| Substance | binding [1] | binding [2] | binding [3] | binding [4] | binding [5] | binding [6] | binding [7] | binding [8] | binding [9] | binding [10] | binding [11] | binding [12] |
| --- | --- | --- | --- | --- | --- | --- | --- | --- | --- | --- | --- | --- |
| PD-L1 Fc Fusion (from UniProt Q9NZQ7 19-238) | binds | binds | binds | binds | binds | binds | no binding | no binding | no binding | – | – | – |
| PD-L2 Fc Fusion (from UniProt Q9BQ51 20-220) | binds | binds | binds | binds | binds | – | – | no binding | – | binds | binds | binds |
